Reference: publication PMC12820563
The other results are listed elsewhere or left out. The list includes weakly bound sequences.

Each sequence was assayed against T1, MBP-FoxP3dN (UniProt Q99JB6) (assay: PD-seq (MBP pull-down with sequencing)). Settings: 20 mM Tris-HCl pH 7.5, 100 mM NaCl, 1.5 mM MgCl2, 0.4 uM protein, 0.1 uM dsDNA library, 30 min, room temperature, amylose pull-down; high values mean tight binding; double strand, one strand shown.
T1 sequence: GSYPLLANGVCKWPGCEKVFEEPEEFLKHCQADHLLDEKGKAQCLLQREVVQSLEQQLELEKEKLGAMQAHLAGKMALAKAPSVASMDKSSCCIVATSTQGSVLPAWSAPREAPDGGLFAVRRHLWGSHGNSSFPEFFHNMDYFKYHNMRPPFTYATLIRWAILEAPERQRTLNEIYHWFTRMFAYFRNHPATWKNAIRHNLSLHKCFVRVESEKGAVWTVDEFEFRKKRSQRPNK
“GATGATTGTTCTCCCAGCTGATGAATTATCCCCTTCGAGTAAACAAATTTTCCTAATCTTTCTGTTCAAGCGCCATCTAC” gave a binding signal (RPM ratio (pull-down/input)) of 0.246. With “GATGATTGTTCTCCCAGCTGATGAATTCCAAATCTCGAGTAAACAAATTTTCCTAATCTTTCTGTTCAAGCGCCATCTAC” the binding signal (RPM ratio (pull-down/input)) was 0.26. “GATGATTGTTCTCCCAGCTGATGAATTGAAGCCTTCGAGTAAACAAATTTTCCTAATCTTTCTGTTCAAGCGCCATCTAC” gave a binding signal (RPM ratio (pull-down/input)) of 1.36. “GATGATTGTTCTCCCAGCTGATGAATTCGTTGTGTCGAGTAAACAAATTTTCCTAATCTTTCTGTTCAAGCGCCATCTAC” gave a binding signal (RPM ratio (pull-down/input)) of 5.69. Work on “GATGATTGTTCTCCCAGCTGATGAATTGCGTTTATCGAGTAAACAAATTTTCCTAATCTTTCTGTTCAAGCGCCATCTAC” yielded a binding signal (RPM ratio (pull-down/input)) of 3.36. “GATGATTGTTCTCCCAGCTGATGAATTAACTCCATCGAGTAAACAAATTTTCCTAATCTTTCTGTTCAAGCGCCATCTAC” was tested, and the binding signal (RPM ratio (pull-down/input)) was 0.274. “GATGATTGTTCTCCCAGCTGATGAATTAGAACCCTCGAGTAAACAAATTTTCCTAATCTTTCTGTTCAAGCGCCATCTAC” showed a binding signal (RPM ratio (pull-down/input)) of 0.253. In the case of “GATGATTGTTCTCCCAGCTGATGAATTCACGCCTTCGAGTAAACAAATTTTCCTAATCTTTCTGTTCAAGCGCCATCTAC”, the binding signal (RPM ratio (pull-down/input)) is reported as 2.31. “GATGATTGTTCTCCCAGCTGATGAATTACTGCCGTCGAGTAAACAAATTTTCCTAATCTTTCTGTTCAAGCGCCATCTAC” was tested, and the binding signal (RPM ratio (pull-down/input)) was 0.475. For “GATGATTGTTCTCCCAGCTGATGAATTAGTTCCATCGAGTAAACAAATTTTCCTAATCTTTCTGTTCAAGCGCCATCTAC”, the binding signal (RPM ratio (pull-down/input)) was 0.439. Work on “GATGATTGTTCTCCCAGCTGATGAATTCGTGCAGTCGAGTAAACAAATTTTCCTAATCTTTCTGTTCAAGCGCCATCTAC” yielded a binding signal (RPM ratio (pull-down/input)) of 0.598. “GATGATTGTTCTCCCAGCTGATGAATTAGCCCGGTCGAGTAAACAAATTTTCCTAATCTTTCTGTTCAAGCGCCATCTAC” gave a binding signal (RPM ratio (pull-down/input)) of 0.201. “GATGATTGTTCTCCCAGCTGATGAATTCAAATTATCGAGTAAACAAATTTTCCTAATCTTTCTGTTCAAGCGCCATCTAC” showed a binding signal (RPM ratio (pull-down/input)) of 0.576. In the case of “GATGATTGTTCTCCCAGCTGATGAATTAGGTGGCTCGAGTAAACAAATTTTCCTAATCTTTCTGTTCAAGCGCCATCTAC”, the binding signal (RPM ratio (pull-down/input)) is reported as 0.625. For “GATGATTGTTCTCCCAGCTGATGAATTATCACGTTCGAGTAAACAAATTTTCCTAATCTTTCTGTTCAAGCGCCATCTAC”, the binding signal (RPM ratio (pull-down/input)) was 0.424. “GATGATTGTTCTCCCAGCTGATGAATTAAGTCTATCGAGTAAACAAATTTTCCTAATCTTTCTGTTCAAGCGCCATCTAC” showed a binding signal (RPM ratio (pull-down/input)) of 0.686. “GATGATTGTTCTCCCAGCTGATGAATTGACGCGTTCGAGTAAACAAATTTTCCTAATCTTTCTGTTCAAGCGCCATCTAC” showed a binding signal (RPM ratio (pull-down/input)) of 1.34. For “GATGATTGTTCTCCCAGCTGATGAATTTTGAACTTCGAGTAAACAAATTTTCCTAATCTTTCTGTTCAAGCGCCATCTAC”, the binding signal (RPM ratio (pull-down/input)) was 0.374. “GATGATTGTTCTCCCAGCTGATGAATTTTGCGGCTCGAGTAAACAAATTTTCCTAATCTTTCTGTTCAAGCGCCATCTAC” gave a binding signal (RPM ratio (pull-down/input)) of 1.45. “GATGATTGTTCTCCCAGCTGATGAATTTTGAAATTCGAGTAAACAAATTTTCCTAATCTTTCTGTTCAAGCGCCATCTAC” showed a binding signal (RPM ratio (pull-down/input)) of 0.592. Work on “GATGATTGTTCTCCCAGCTGATGAATTATTAAGATCGAGTAAACAAATTTTCCTAATCTTTCTGTTCAAGCGCCATCTAC” yielded a binding signal (RPM ratio (pull-down/input)) of 0.268. For “GATGATTGTTCTCCCAGCTGATGAATTATAGAACTCGAGTAAACAAATTTTCCTAATCTTTCTGTTCAAGCGCCATCTAC”, the binding signal (RPM ratio (pull-down/input)) was 0.249. In the case of “GATGATTGTTCTCCCAGCTGATGAATTCCAAGGCTCGAGTAAACAAATTTTCCTAATCTTTCTGTTCAAGCGCCATCTAC”, the binding signal (RPM ratio (pull-down/input)) is reported as 0.233. Sequence “GATGATTGTTCTCCCAGCTGATGAATTGCTCTCATCGAGTAAACAAATTTTCCTAATCTTTCTGTTCAAGCGCCATCTAC” has a binding signal (RPM ratio (pull-down/input)) of 0.606. Work on “GATGATTGTTCTCCCAGCTGATGAATTTTCTCAGTCGAGTAAACAAATTTTCCTAATCTTTCTGTTCAAGCGCCATCTAC” yielded a binding signal (RPM ratio (pull-down/input)) of 0.181. “GATGATTGTTCTCCCAGCTGATGAATTAGCCAACTCGAGTAAACAAATTTTCCTAATCTTTCTGTTCAAGCGCCATCTAC” showed a binding signal (RPM ratio (pull-down/input)) of 0.284. “GATGATTGTTCTCCCAGCTGATGAATTGAAATATTCGAGTAAACAAATTTTCCTAATCTTTCTGTTCAAGCGCCATCTAC” showed a binding signal (RPM ratio (pull-down/input)) of 0.426. For “GATGATTGTTCTCCCAGCTGATGAATTTTAGGGCTCGAGTAAACAAATTTTCCTAATCTTTCTGTTCAAGCGCCATCTAC”, the binding signal (RPM ratio (pull-down/input)) was 0.306. In the case of “GATGATTGTTCTCCCAGCTGATGAATTCGGTAGGTCGAGTAAACAAATTTTCCTAATCTTTCTGTTCAAGCGCCATCTAC”, the binding signal (RPM ratio (pull-down/input)) is reported as 0.485. In the case of “GATGATTGTTCTCCCAGCTGATGAATTCTCACGCTCGAGTAAACAAATTTTCCTAATCTTTCTGTTCAAGCGCCATCTAC”, the binding signal (RPM ratio (pull-down/input)) is reported as 0.337. Work on “GATGATTGTTCTCCCAGCTGATGAATTCCCGCGCTCGAGTAAACAAATTTTCCTAATCTTTCTGTTCAAGCGCCATCTAC” yielded a binding signal (RPM ratio (pull-down/input)) of 0.366. “GATGATTGTTCTCCCAGCTGATGAATTGAGCCGGTCGAGTAAACAAATTTTCCTAATCTTTCTGTTCAAGCGCCATCTAC” showed a binding signal (RPM ratio (pull-down/input)) of 0.333. Work on “GATGATTGTTCTCCCAGCTGATGAATTACTGGTCTCGAGTAAACAAATTTTCCTAATCTTTCTGTTCAAGCGCCATCTAC” yielded a binding signal (RPM ratio (pull-down/input)) of 0.364. Work on “GATGATTGTTCTCCCAGCTGATGAATTCATTGGCTCGAGTAAACAAATTTTCCTAATCTTTCTGTTCAAGCGCCATCTAC” yielded a binding signal (RPM ratio (pull-down/input)) of 0.916. “GATGATTGTTCTCCCAGCTGATGAATTACCGGATTCGAGTAAACAAATTTTCCTAATCTTTCTGTTCAAGCGCCATCTAC” gave a binding signal (RPM ratio (pull-down/input)) of 0.239. With “GATGATTGTTCTCCCAGCTGATGAATTGCCCACTTCGAGTAAACAAATTTTCCTAATCTTTCTGTTCAAGCGCCATCTAC” the binding signal (RPM ratio (pull-down/input)) was 0.507. “GATGATTGTTCTCCCAGCTGATGAATTTACGTGGTCGAGTAAACAAATTTTCCTAATCTTTCTGTTCAAGCGCCATCTAC” was tested, and the binding signal (RPM ratio (pull-down/input)) was 0.556. In the case of “GATGATTGTTCTCCCAGCTGATGAATTCAATCCATCGAGTAAACAAATTTTCCTAATCTTTCTGTTCAAGCGCCATCTAC”, the binding signal (RPM ratio (pull-down/input)) is reported as 0.349. With “GATGATTGTTCTCCCAGCTGATGAATTTATTCAGTCGAGTAAACAAATTTTCCTAATCTTTCTGTTCAAGCGCCATCTAC” the binding signal (RPM ratio (pull-down/input)) was 0.473. For “GATGATTGTTCTCCCAGCTGATGAATTGCTTGTATCGAGTAAACAAATTTTCCTAATCTTTCTGTTCAAGCGCCATCTAC”, the binding signal (RPM ratio (pull-down/input)) was 1.9.
